In all, about 33,000 sequences were measured (“E-score (-0.5 to 0.5)”: median about -0.012, highest 2% from about 0.29 on). The list shows a part of the results.
molecular target: T1, Ybr033w (UniProt P38073); test: PBM E-score (8-mer binding enrichment) (E-score (-0.5 to 0.5)); higher = stronger / more preferred TF binding; most listed sequences are background and not binding sites; conditions: protein concentration: 200 nM; construct: GST-full length
T1 sequence: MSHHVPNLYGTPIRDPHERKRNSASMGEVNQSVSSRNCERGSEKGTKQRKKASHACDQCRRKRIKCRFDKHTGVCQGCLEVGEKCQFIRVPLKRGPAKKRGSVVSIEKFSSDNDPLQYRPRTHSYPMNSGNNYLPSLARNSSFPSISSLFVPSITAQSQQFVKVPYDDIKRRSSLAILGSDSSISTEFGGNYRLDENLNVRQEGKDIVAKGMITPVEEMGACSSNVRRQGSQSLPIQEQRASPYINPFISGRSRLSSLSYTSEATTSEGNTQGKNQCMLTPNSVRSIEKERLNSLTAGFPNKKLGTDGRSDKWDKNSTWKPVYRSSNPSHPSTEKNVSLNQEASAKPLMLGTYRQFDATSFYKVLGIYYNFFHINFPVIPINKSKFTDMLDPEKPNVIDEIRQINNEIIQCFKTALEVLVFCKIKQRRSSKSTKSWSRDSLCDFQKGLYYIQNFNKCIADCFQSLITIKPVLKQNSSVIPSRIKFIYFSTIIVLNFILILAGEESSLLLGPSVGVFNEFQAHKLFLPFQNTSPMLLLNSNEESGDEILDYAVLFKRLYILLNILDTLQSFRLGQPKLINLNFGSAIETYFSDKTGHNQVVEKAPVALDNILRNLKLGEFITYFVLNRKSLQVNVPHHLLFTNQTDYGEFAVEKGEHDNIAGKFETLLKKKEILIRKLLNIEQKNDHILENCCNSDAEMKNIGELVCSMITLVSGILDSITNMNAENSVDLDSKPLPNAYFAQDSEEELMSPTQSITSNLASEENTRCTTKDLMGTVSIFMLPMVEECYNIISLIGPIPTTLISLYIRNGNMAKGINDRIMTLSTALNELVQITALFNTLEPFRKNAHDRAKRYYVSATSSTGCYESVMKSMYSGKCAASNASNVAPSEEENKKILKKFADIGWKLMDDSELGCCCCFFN
How it was run: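 Yeast transcription factors carrying a GST tag, as full-length proteins or DNA-binding domains, were produced by PURExpress in vitro transcription/translation. About 100-200 nM protein was applied to universal all-10-mer Agilent arrays, double-stranded by primer extension on fresh or once-stripped slides. Bound protein was detected with fluorescent anti-GST, and scans were normalised with masliner. The Universal PBM Analysis Suite gave each ungapped eight-base word, pooled with its reverse complement, an E-score, a modified Wilcoxon-Mann-Whitney statistic.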

Row | Sequence | PBM E-score
1 | AGATGCTC | -0.0578
2 | ACGTGTTG | -0.117
3 | CGTCCCAG | -0.21
4 | AGACCTCA | -0.101
5 | AACCTGAC | 0.103
6 | AGGACTCA | 0.0434
7 | CGCATGCC | 0.132
8 | CACGATCA | 0.0996
9 | ACCTGCGG | -0.146
10 | AGGTACTC | 0.0214
11 | ATGGCTCA | -0.0225
12 | AATGTCCT | 0.0282
13 | AGCTGAAA | 0.0546
14 | ACTCGTGC | -0.0546
15 | GAAGTTTA | 0.278
16 | AGTCGGCG | -0.0441
17 | GAGGGATC | -0.117
18 | GACGACTC | -0.14
19 | CCCAACGA | -0.107
20 | ACCTTAGT | -0.026
21 | CCAACGCA | -0.0708
22 | TAAGCAGA | -0.0104
23 | CCAATGTC | -0.0608
24 | ACCGGACC | -0.199
25 | CCCAGGGC | -0.364

Row | Sequence | PBM E-score
26 | GGTCAAAA | 0.0783
27 | CATGGCTC | -0.207
28 | CATGTGAA | -0.098
29 | CTACCTAA | 0.196
30 | GGAATGTA | 0.114
31 | GACTCTGC | -0.243
32 | AAAACTAC | 0.22
33 | AGCTGGAC | -0.145
34 | AAAAGGAA | 0.0996
35 | GGGCCAAC | -0.191
36 | CTTTGGCA | -0.192
37 | AACAGGAT | 0.0273
38 | CGCTCGAG | 0.0302
39 | AGGGTGGC | -0.053
40 | GCGTCCCC | -0.287
41 | CATGGTGA | 0.137
42 | ACTCGCCT | -0.118
43 | GACTGAGA | -0.0938
44 | CTACTCCA | -0.00018
45 | ACCGACCT | -0.172
46 | CCCTAGTA | -0.0894
47 | CTCCACGC | -0.241
48 | GATAACAA | 0.153
49 | GATGGCCC | -0.235
50 | GAAGACTA | 0.0291

Row | Sequence | PBM E-score
51 | GCTACTTA | 0.0917
52 | ATGGCGTA | 0.0718
53 | ACTAACGG | -0.0153
54 | AGTTGGGA | -0.086
55 | ATAGCCAT | 0.0973
56 | GAGTGAGA | 0.105
57 | ATAGCTCG | -0.106
58 | ACGACACA | 0.0592
59 | CTACCAGA | 0.0212
60 | TGTAATAA | 0.297
61 | CGCGTTCC | -0.227
62 | ATTCGACC | -0.285
63 | AACCTGTC | -0.181
64 | CTGATGAA | 0.119
65 | ATGCGTAC | 0.111
66 | TCACAAGA | -0.0328
67 | CGCCGAAC | -0.00384
68 | GTTTGCGA | 0.0654
69 | CGCAGCCA | -0.0917
70 | CGGCAGAA | -0.149
71 | GGTCACGA | -0.0573
72 | TGGAACCA | 0.0554
73 | ATAACCGA | -0.0613
74 | CAAGGTGA | -0.103
75 | ATATGTCA | 0.118

Row | Sequence | PBM E-score
76 | GCAGTGCC | -0.186
77 | AGATTCCT | 0.036
78 | GCCTATAC | -0.128
79 | CAGCGAGG | -0.138
80 | AAACGATT | 0.053
81 | GCATCTGA | -0.195
82 | CAAGTAAG | 0.137
83 | ACGAACCA | 0.204
84 | CCATTTGC | 0.0186
85 | AACGTAGG | -0.201
86 | AACACGTA | 0.0645
87 | GACCGTCC | -0.223
88 | CAAAGCTC | -0.212
89 | GAGTAGAC | -0.0114
90 | CCAAACAG | -0.228
91 | AGTGACAT | 0.056
92 | GCCAGGAA | 0.00279
93 | GAGCGCTA | -0.0339
94 | AATTCATA | 0.235
95 | CCAGTTAA | 0.192
96 | CCATAGAC | -0.107
97 | GTTATCCA | 0.0783
98 | ACTCTGCC | -0.0696
99 | CTGTTTAC | 0.163
100 | CTCCTAAC | -0.128

Row | Sequence | PBM E-score
101 | ACCGAGAA | 0.132
102 | CCCATTAA | -0.0404
103 | CCACGCGG | -0.291
104 | GAGTGGGA | -0.12
105 | CATGGAAA | 0.202
106 | ACAGCAGG | -0.0354
107 | AATCATCA | 0.17
108 | ATGACGGA | 0.0551
109 | GAAGCATA | -0.0562
110 | GCTATTTA | 0.132
111 | ACGCACTG | -0.124
112 | AAAAGACA | 0.292
113 | ACAATCAT | 0.114
114 | AGTGAATG | 0.166
115 | ATGTCTTG | 0.168
116 | AAGCGAAG | -0.0636
117 | TACGATCA | 0.148
118 | GCGCAAGA | 0.0606
119 | ATAGCGCA | 0.0412
120 | CGTGTATA | 0.179
121 | CCATGGCC | -0.295
122 | CATCCAGC | -0.0524
123 | GGCGGAAC | 0.136
124 | AGGCGTCC | -0.168
125 | GAGCTAGA | -0.345

Row | Sequence | PBM E-score
126 | AACAAAAG | 0.116
127 | CCCTGAAC | 0.114
128 | GACTCTTA | 0.0544
129 | CTCTGAGA | -0.195
130 | AAGCCCAT | -0.0465
131 | AACATCAT | 0.215
132 | AAGGCCAA | -0.179
133 | AGACCTAT | 0.102
134 | CCTATTGA | 0.0384
135 | GATGAGAC | 0.00284
136 | CTTACTAA | 0.143
137 | CGCGAAAG | 0.0236
138 | CGGGTCAG | -0.0811
139 | GCTCACCC | -0.227
140 | CTGCCTTC | -0.0378
141 | ATTGCCCA | -0.00783
142 | CTGAGAAG | -0.0783
143 | ACTAACCC | 0.0277
144 | GACGGAGA | -0.00157
145 | TCGTGTAA | 0.0643
146 | AGTCATCG | -0.126
147 | AAATTAAT | 0.314
148 | TGACGCCA | -0.0681
149 | CATATGGA | -0.0514
150 | CCTACACC | -0.0241

Row | Sequence | PBM E-score
151 | GCCTTAGA | -0.136
152 | GAGCCGAC | -0.372
153 | CGCCTATA | -0.149
154 | ATTCATAG | 0.19
155 | CCGGAGCA | -0.181
156 | ACCGAACA | 0.0621
157 | CAATTGGC | 0.0598
158 | GCTTGTAC | 0.0199
159 | AGCTCTGC | -0.255
160 | TGTACAAA | 0.205
161 | CTGTATAA | 0.206
162 | AGAGTTAG | 0.0746
163 | AATGTAGA | 0.152
164 | AGCTTGCG | -0.11
165 | GACATAGA | -0.149
166 | TACCGCCA | 0.0243
167 | CGTATGCC | -0.117
168 | CTCAAAAG | 0.0394
169 | TCCATTAA | 0.115
170 | GCGCCAGA | -0.172
171 | TTAGCAAA | 0.218
172 | GTATCCAC | 0.0566

Source: the supplement of paper PMC3334620
